About 6,400 (1.6%) of roughly 410,000 compounds were called active. This list was built around the results that the source calls inconclusive (neither active nor inactive); the mix of calls is not that of the screen. Calls follow the shape of the dose curve; as a rule, active = well fitted inhibition curve with a large enough effect; inconclusive = small, poorly fitted or top-dose-only effect; inactive = no such curve, though single readings can be large or run the other way. A potency beside an inconclusive call is a rough fit, not a confirmed value.
Target: Glucagon-like peptide 1 receptor (Homo sapiens) (UniProt P43220)
UniProt P43220, sequence (P43220 whole entry, looked up): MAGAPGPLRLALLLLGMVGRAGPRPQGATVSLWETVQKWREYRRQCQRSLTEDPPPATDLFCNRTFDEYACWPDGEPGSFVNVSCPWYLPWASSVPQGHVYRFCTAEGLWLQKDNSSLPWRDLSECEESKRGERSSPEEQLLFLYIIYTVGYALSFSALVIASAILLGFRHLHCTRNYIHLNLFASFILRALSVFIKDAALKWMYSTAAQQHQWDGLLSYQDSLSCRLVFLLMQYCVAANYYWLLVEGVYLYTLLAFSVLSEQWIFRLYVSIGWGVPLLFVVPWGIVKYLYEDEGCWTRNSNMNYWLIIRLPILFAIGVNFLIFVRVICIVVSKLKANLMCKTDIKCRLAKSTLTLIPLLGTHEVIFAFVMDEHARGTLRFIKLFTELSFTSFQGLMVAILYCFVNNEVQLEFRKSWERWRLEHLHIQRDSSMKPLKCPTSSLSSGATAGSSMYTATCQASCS
Assay: qHTS of GLP-1 Receptor Inverse Agonists (Inhibition Mode); also: nearly all actives have a fitted effect of over 55% in size
Settings: HEK293 GLP-1R CRE-luciferase, luminescence, 24 h, GLP-1R form is constitutively active; series mostly up to 38.3 µM
Outline: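 HEK293 cells stably co-expressing a cAMP-responsive luciferase reporter and constitutively active GLP-1R were seeded, incubated 12 h, then exposed to compounds for 24 h at 37 C. Luminescence was read 12 min after detection reagent; inverse agonists lower signal.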
Potency is read from the fitted curve at half-maximal effect; tags tell the direction and shape of the fitted curve.

Potency, inactive:
COC(=O)N=Nc1c(O)n(Cc2ccccc2)c2ccccc12
Cc1nc2sccn2c(=O)c1S(=O)(=O)Nc1cc(Cl)ccc1O
CCOC(=O)c1sc(C)c2c1NC(c1ccc(Cl)cc1)NC2=O (centres undefined)
COC(C(=O)C(O)C(C)O)C1Cc2cc3cc(OC4CC(OC5CC(O)C(O)C(C)O5)C(O)C(C)O4)c(C)c(O)c3c(O)c2C(=O)C1OC1CC(OC2CC(OC3CC(O)C(OC)C(C)O3)C(O)C(C)O2)C(O)C(C)O1 (centres undefined)
COc1cc(OC)cc(C(=O)Nc2ccc([N+](=O)[O-])cn2)c1
CCOC(=O)c1cc(-c2ccc(F)cc2)n(CC(=O)NC2CCCCCC2)c1C
Cc1nonc1OCCNCc1c(C(=O)N(C)C)nc2ccc(Cl)cn12

Potency, inconclusive:
COc1ccc(SCCN2CC[C@@H](NC(=O)OCc3ccccc3)CCC2=O)cc1 10 µM [inhibitor, single point]
CC(C)c1cc(CNC(=O)CCc2nnc(CCCCc3ccccc3)o2)on1 28.2 µM [inhibitor, single point]
Cc1ccc(CN(Cc2ccco2)C(=O)c2ccc(OCC(C)C)cc2)cc1 11.2 µM [inhibitor, partial curve, poor fit]
CC(C)(C)C(=O)Nc1nc2cc3c(cc2s1)OCO3 28.2 µM [inhibitor, single point]
O=C(Cc1ccccc1)Nc1cc(Cl)ccc1Sc1ccccc1 7.08 µM [inhibitor, partial curve, poor fit]
CCC(=O)N1N=C(c2ccc(NS(=O)(=O)c3ccc(C)cc3)cc2)CC1c1ccco1 (centres undefined) 10 µM [inhibitor, partial curve, poor fit]
CCOC(=O)c1ccc(NC(=S)NC2CCCC2)cc1 31.6 µM [inhibitor, single point]
O=C(CSc1nc2nn(-c3ccccc3)c(=O)c-2c2n1CCCCC2)Nc1ccc(F)c(F)c1 28.2 µM [inhibitor, single point]
O=C(Nc1cccc(C(=O)N2CCN(c3cccc(Cl)c3)CC2)c1)c1ccccc1 10 µM [inhibitor, partial curve, poor fit]
S=C(NCc1ccccc1)NCc1cccc(Cl)c1 0.891 µM [inhibitor, full curve, poor fit]
CCCCS(=O)(=O)c1oc(-c2ccc(F)cc2)nc1S(=O)(=O)c1ccc(C)cc1 11.2 µM [inhibitor, partial curve, poor fit]

Potency, active:
N#CC(c1ccc([N+](=O)[O-])cc1)C(CC(=O)c1ccccc1)c1ccccc1 (centres undefined) 11.2 µM

From PubChem BioAssay AID624417 (National Center for Advancing Translational Sciences (NCATS), 2012)
